Article PMC6919601, “Identification of Plasmodium dipeptidyl aminopeptidase allosteric inhibitors by high throughput screening” (PLoS ONE, 2019)
Out of some 110,000 compounds screened, about 230 (0.21%) showed an effect of 50% or more. Some of the results follow.

Each compound was assayed against DPAP1 (Plasmodium falciparum, UniProt Q8IIJ9) (assay: primary screen, percent inhibition; read by cleavage of a fluorogenic dipeptide substrate; higher = more effect of the substance).
Design: species or system P. falciparum D10 trophozoite lysates; single well
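Further: 30 min substrate incubation versus DMSO and 10 µM JCP410 controls.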

Sequence of DPAP1 (Q8IIJ9 whole entry, looked up): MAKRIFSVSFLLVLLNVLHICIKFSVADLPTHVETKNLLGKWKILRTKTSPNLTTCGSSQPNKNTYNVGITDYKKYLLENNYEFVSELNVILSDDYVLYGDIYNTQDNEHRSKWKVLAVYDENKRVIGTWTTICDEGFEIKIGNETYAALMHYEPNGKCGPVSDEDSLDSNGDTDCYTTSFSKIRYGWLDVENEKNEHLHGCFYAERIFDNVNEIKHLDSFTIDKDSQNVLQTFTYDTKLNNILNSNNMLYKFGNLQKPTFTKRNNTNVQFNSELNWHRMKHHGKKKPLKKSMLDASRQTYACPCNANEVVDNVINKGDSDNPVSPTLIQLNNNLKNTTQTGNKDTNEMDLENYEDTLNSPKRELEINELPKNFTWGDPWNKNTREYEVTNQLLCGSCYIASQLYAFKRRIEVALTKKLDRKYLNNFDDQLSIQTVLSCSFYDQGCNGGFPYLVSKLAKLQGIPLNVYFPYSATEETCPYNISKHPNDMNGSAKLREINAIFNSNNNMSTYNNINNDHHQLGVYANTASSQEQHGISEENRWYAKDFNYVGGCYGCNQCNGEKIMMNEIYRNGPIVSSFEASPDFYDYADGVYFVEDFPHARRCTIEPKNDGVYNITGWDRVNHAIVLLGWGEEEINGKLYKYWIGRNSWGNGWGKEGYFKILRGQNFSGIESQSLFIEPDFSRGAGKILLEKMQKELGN

SMILES	% Inhibition @ 10 uM
COC(=O)c1conc1-c1ccccn1	-6.22%
O=C(NCc1ccc(F)cc1)c1nc2ncccn2n1	-3.53%
O=C(CCc1ccc(S(=O)(=O)NCc2ccccc2)cc1)N1CCN(c2ccccc2)CC1	0.145%
OCC1CCCN1Cc1ccc2c(c1)Cc1ccccc1-2 (stereo not drawn)	-0.0648%
O=C1N(c2ccccc2)C2CS(=O)(=O)CC2N1c1ccc(Br)cc1 (stereo not drawn)	-2.14%
COc1ccc(C(=O)Nc2ccc(CN3CCOCC3)cc2)cc1	-3.09%
Nc1nc(N)nc(-c2ccccc2O)n1	-6.11%
O=C(/C(=C/c1ccc(F)cc1)c1nc2ccccc2[nH]1)c1ccccc1	3.01%
O=C(Cc1cccs1)NCc1cccc(C(F)(F)F)c1	20.2%
CCN(CC)CCN1C(=O)C(O)=C(C(=O)c2ccc(C)cc2)C1c1ccc(F)cc1 (stereo not drawn)	1.29%
COc1ccc(-c2cc(C)no2)cc1S(=O)(=O)N1CCC(c2ccccc2)C1 (stereo not drawn)	-4.55%
O=C(Nc1ccccc1O)C1CCCCC1	-6.05%
N#CCNC(=O)CCC1CCN(C(=O)OCC2c3ccccc3-c3ccccc32)CC1	1.35%
OCC1CCCN1C1CCN(CCc2ccccc2)CC1 (stereo not drawn)	10.2%
O=C(N/C(=C\c1cc(-c2ccccc2)nn1-c1ccccc1)C(=O)N1CCOCC1)c1ccc(Cl)cc1Cl	-2.59%
COc1ccc(-c2ccc3c(N)c(C(=O)NCCc4ccc(OC)c(OC)c4)sc3n2)cc1	-8.09%
COc1ccc(CCNC2=C(Cl)C(=O)N(Cc3ccccc3)C2=O)cc1OC	-4.33%
CCCn1c2ccccc2c2cnn(CC(=O)NC3CCN(Cc4ccccc4)CC3)c(=O)c21	3.05%
CN(Cc1ccccc1)C(=O)c1ccc2c(c1)ncn2C1CCCC1	0.387%
CC1=C(C(=O)Nc2ccc(C)cc2)C(c2ccc(N(C)C)cc2)NC(S)=N1 (stereo not drawn)	-0.582%
COCCCNC(=O)CN1C(=O)CSc2nc(C)cc(C)c21	1.03%

SMILES	% Inhibition @ 10 uM
Cn1c(=O)c2c(nc(OC/C=C\c3ccccc3)n2C)n(C)c1=O	2.84%
Cc1ccc(-c2nc3ccccc3n3cc4c(=O)n(C)c(=O)n(C)c4c23)cc1	2%
CN(Cc1ccco1)C(=O)Cn1nc(Cc2cccnc2)c2ccccc2c1=O	-6.52%
CCS(=O)(=O)c1c(S(=O)(=O)CC)c2c(C)cccn2c1C(=O)c1ccccc1	-3.83%
NC(=O)c1cccnc1Nc1ccc(Cl)c(C(F)(F)F)c1	0.83%
COc1ccc(-n2c(O)cc(=O)[nH]c2=S)cc1	2.22%
COc1ccc(-c2nn(C)c(=O)c3ccccc23)cc1CNC(=O)c1ccccc1Cl	2.1%
O=C(Cn1ncc2c1-c1ccccc1OC2)N1CCc2ccccc2C1	2.6%
CCN(c1ccccc1)S(=O)(=O)c1cc(Cl)ccc1Cl	-3.42%
Cc1ccc2[nH]c3c(c2c1)CCCC3N1CCOCC1 (stereo not drawn)	-1.08%
CC(C)C[C@H](NC(=O)c1ccc(-c2ccc(S(C)(=O)=O)cc2)cc1)C(=O)NCC#N	15.9%
CCc1cc(C)cc(OCC(O)Cn2c(C)[n+](C)c3ccccc32)c1 (stereo not drawn)	-5.85%
CC(=C1C(=O)c2ccccc2C1=O)N1CCN(CC/N=C(\C)C2=C(O)CC(C)(C)CC2=O)CC1	-4.41%
CS(=O)(=O)CCC(C(=O)O)N1C(=O)c2ccccc2C1=O (stereo not drawn)	2.76%
CN1C(=O)/C(=C\c2ccncc2)S/C1=N/c1ccccc1	-10.2%
O=C(COc1ccccc1)N1CCN(Cc2ccncc2)CC1	3.56%
O=C(NCC1COc2ccccc2O1)C1C2C=CC3(CN(Cc4cccs4)C(=O)C13)O2 (stereo not drawn)	-0.503%
O=C(NCc1ccccc1Br)c1ccc2nc(N3CCOCC3)sc2c1	-5.15%
CCN(CCN(C)C)Cc1cc(OC)c(OC)cc1[N+](=O)[O-]	-2.34%
COc1cccc2c1OC(C)(C)N1N=C(c3cc(Cl)ccc3O)CC21 (stereo not drawn)	1.76%
CCN1C(C(=O)c2ccccc2)=C(NC(=O)COc2ccc(C)cc2)c2ccccc2S1(=O)=O	-3.63%

SMILES	% Inhibition @ 10 uM
Cc1cccn2c(=O)c3cc(C(=O)NCc4ccco4)c(=N)n(C4CCCCC4)c3nc12	0.279%
Fc1cccc(Cl)c1Cc1nnc(-c2ccccc2)o1	2.5%
CCOC(=O)N1CCN(Cc2nc(-c3ccccc3)no2)CC1	-1.81%
O=Cc1cc(Br)ccc1OCc1c(F)cccc1Cl	3.25%
O=C(c1cnn(-c2ccccc2)c1-n1cccc1)N1CCCC(C(=O)N2CCOCC2)C1 (stereo not drawn)	4.95%
CC(CNC(=O)Cn1ncn2cccc2c1=O)c1ccccc1 (stereo not drawn)	-8.77%
COc1ccc(C(=O)CCNCCC(=O)O)cc1	30.1%
CC(C)NC(=O)C1CCCN(S(=O)(=O)c2ccc(F)cc2)C1 (stereo not drawn)	3.66%
CSc1ccc(CCNC(=O)c2ccc(CS(=O)c3ccccc3C)o2)cc1 (stereo not drawn)	2.03%
CC(C)C[C@H](NC(=O)c1ccc(N2CCN(C)CC2)cc1)C(=O)N[C@@H](CCCCNC(=O)OCc1ccccc1)C(=O)O	-4.72%
COCCCNc1ncnc2c1cnn2-c1cccc(C)c1	4.3%
COc1ccc(CNC(=O)c2cncc(Br)c2)cc1	0.503%
O=C1CC(c2ccc(Cl)cc2)CC(=O)C1=CNCCN1CCN(C(=O)c2ccccc2)CC1 (stereo not drawn)	1.37%
Cc1cc(=O)n2nc(N(C)CC(=O)N3CCOCC3)sc2n1	6.06%
COc1ccc(OCc2ccc(C(=O)N3N=C(C)CC3(O)C(F)(F)F)cc2)cc1 (stereo not drawn)	5.61%
Cc1ccc2[nH]cc(CC(C)N)c2c1 (stereo not drawn)	0.279%
CCS(=O)(=O)C1=NSC2=NC(=O)/C(=C\c3ccc(O)c(OC)c3)C(=N)N21	1.85%
Cc1ccc(/C=C2/SC(N3CCOCC3)=NC2=O)o1	-2.8%
COc1ccc(CNC(=O)C2CC(=O)N(CCC(C)C)C2)cc1 (stereo not drawn)	3.66%
CCOc1ccc(Cl)cc1S(=O)(=O)N1CC(C)OC(C)C1 (stereo not drawn)	-6.44%
O=C(CNS(=O)(=O)c1ccc(Br)cc1)Nc1ccc(F)cc1	2.6%
